From PubChem BioAssay AID504333 (National Center for Advancing Translational Sciences (NCATS), 2011)
About 16,000 (4.4%) of roughly 360,000 compounds were called active. The shares of active, inactive and inconclusive entries below differ from those in the screen. Calls come from the whole dose curve; as a rule, active = well fitted inhibition curve with a large enough effect; inconclusive = small, poorly fitted or top-dose-only effect; inactive = no such curve, though single readings can be large or run the other way. Where the call is inconclusive, the potency comes from a doubtful curve fit.

Each compound was assayed against Bromodomain adjacent to zinc finger domain protein 2B (Homo sapiens) (UniProt Q9UIF8) (assay: qHTS Assay for Inhibitors of BAZ2B). Conditions: AlphaScreen BAZ2B-H3K14Ac peptide displacement; series mostly up to 114 µM.
How it was run: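 AlphaScreen luminescence quantifies BAZ2B engagement of H3K14Ac peptide; the protein and biotinylated peptide are both at 50 nM final, buffer PBS pH 7.4 with 0.01% Tween-20, all steps at room temperature.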
Note: nearly all actives have a fitted effect of over 60% in size.
Potency is the fitted concentration of half-maximal effect; tags give direction and shape of the fitted curve.

UniProt Q9UIF8, sequence (Q9UIF8 whole entry, looked up, the tested form may be a part): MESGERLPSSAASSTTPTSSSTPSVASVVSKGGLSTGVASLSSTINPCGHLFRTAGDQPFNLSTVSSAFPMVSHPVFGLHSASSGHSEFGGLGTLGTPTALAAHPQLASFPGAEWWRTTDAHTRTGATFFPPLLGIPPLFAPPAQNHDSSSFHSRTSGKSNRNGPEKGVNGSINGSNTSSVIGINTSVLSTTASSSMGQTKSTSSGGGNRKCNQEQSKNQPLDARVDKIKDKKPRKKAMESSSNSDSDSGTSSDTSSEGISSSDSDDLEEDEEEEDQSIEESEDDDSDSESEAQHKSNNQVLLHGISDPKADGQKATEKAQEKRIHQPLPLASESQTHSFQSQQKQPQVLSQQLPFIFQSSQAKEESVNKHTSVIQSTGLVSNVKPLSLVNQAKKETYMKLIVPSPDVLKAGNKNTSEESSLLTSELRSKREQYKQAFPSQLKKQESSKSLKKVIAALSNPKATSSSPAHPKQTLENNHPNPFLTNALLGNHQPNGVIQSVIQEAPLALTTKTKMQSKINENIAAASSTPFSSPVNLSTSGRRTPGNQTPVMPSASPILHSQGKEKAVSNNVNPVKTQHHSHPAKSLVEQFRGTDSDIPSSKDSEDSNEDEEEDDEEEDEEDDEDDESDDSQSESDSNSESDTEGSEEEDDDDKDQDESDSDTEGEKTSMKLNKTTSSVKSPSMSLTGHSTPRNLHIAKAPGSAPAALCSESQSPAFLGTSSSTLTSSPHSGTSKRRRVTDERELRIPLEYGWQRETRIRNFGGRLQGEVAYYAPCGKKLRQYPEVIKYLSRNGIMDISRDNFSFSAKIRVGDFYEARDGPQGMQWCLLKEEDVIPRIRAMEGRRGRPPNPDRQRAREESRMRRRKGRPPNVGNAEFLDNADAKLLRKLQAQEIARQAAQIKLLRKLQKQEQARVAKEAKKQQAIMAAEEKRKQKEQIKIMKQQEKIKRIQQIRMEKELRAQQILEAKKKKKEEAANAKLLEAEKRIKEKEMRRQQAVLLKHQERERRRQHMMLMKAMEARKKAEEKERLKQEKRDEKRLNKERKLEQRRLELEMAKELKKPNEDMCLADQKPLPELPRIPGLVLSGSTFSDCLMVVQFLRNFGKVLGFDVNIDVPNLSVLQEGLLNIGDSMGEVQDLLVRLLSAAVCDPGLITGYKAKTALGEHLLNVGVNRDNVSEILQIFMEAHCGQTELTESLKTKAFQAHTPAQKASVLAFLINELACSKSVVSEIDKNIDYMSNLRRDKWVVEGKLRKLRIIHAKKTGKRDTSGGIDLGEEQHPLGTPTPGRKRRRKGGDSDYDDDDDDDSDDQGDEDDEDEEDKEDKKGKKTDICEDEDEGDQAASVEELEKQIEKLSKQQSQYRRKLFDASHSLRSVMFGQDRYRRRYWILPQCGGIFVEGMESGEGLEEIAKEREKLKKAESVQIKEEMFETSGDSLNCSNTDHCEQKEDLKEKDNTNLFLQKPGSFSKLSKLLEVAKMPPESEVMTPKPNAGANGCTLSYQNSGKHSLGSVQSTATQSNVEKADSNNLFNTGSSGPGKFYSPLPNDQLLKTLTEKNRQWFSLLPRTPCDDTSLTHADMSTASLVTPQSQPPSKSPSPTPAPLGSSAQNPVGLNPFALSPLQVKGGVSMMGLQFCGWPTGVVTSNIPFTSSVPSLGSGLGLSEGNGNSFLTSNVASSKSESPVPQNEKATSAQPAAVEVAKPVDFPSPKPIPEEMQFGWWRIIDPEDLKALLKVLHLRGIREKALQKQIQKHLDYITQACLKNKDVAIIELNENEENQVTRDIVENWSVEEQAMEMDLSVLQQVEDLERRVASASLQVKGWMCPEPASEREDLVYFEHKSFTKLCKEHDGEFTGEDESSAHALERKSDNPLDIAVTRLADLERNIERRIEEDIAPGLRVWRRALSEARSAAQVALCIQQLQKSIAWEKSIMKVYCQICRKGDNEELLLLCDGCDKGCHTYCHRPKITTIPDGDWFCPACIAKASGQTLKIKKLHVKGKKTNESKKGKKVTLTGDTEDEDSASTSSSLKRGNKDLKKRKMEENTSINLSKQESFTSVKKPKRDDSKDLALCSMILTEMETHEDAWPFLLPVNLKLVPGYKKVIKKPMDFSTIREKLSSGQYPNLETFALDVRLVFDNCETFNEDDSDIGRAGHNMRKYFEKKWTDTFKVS

| SMILES | Potency |
| --- | --- |
| CCOC(=O)c1c(S(=O)(=O)NCC(=O)Nc2ccc(F)cc2F)c(C)n(C)c1C | inconclusive: 89.1 µM [inhibitor, single point] |
| O=C(OCc1ccccc1)N1CCOCCOCCN(C(=O)OCc2ccccc2)CCOCCOCC1 | inactive |
| O=C(COc1ccccc1)NCCSCc1ccco1 | inconclusive: 89.1 µM [inhibitor, single point] |
| COc1cc(/C=C\C(=O)NCc2ccc3c(c2)cc(C)n3C)cc(OC)c1OC | inconclusive: 25.1 µM [inhibitor, full curve] |
| CCSC1=NC2(CCCCC2)Nc2sc3c(c21)CCCC3 | inconclusive: 89.1 µM [inhibitor, single point] |
| COc1ccc(C)cc1NC(=O)CSc1ccc(-c2ccco2)nn1 | inconclusive: 50.1 µM [inhibitor, partial curve] |
| Cc1c(Br)c([N+](=O)[O-])nn1CC(=O)NCc1ccccc1 | inactive |
| O=C(O)C(Cc1cn[nH]n1)=NO | active: 25.1 µM |
| COC(=O)CSc1nnc(-c2ccc(S(=O)(=O)N3CCCC3)cc2)o1 | inactive |
| CC1(C)Cc2c(c(N3CCCC3)nc3sc(C(=O)Nc4ccccc4)c(N)c23)CO1 | inactive |
| COCCNc1ccc([N+](=O)[O-])cc1C(=O)Nc1cccc(C)n1 | inconclusive: 70.8 µM [inhibitor, single point] |
| N/C(=N/O)c1ccccc1N1CCC(Cc2ccccc2)CC1 | inactive |
| COc1ccc(C(=O)Nc2ccc(-c3n[nH]c(=S)o3)cc2)cc1 | inconclusive: 89.1 µM [inhibitor, single point] |
| C/C(=C\C(=O)c1ccc(C)o1)Nc1ccc(C(=O)O)cc1C | inconclusive: 89.1 µM [inhibitor, single point] |
| C=CCOc1c(Cl)cc(CNc2ccc(C)c(Cl)c2)cc1OC | inactive |
| CCn1c(C)c(C2N3CC4(C)CN2CC(C)(C3)C4=O)c2ccccc21 (configuration not stated) | inactive |
| COc1ccc(C=O)cc1COc1ccc(C)cc1[N+](=O)[O-] | inconclusive: 79.4 µM [inhibitor, partial curve] |
| COc1ccc(N2CCN(C(=O)c3ccc(C)cc3)CC2)c([N+](=O)[O-])c1 | inconclusive: 50.1 µM [inhibitor, partial curve] |
| CCCc1cc(-c2n[nH]c(=S)n2-c2cccc(C)c2)cs1 | inconclusive: 44.7 µM [inhibitor, partial curve] |
| Cc1cccc(N/C=C(\[N+](=O)[O-])S(=O)(=O)c2ccccc2)c1 | inconclusive: 79.4 µM [inhibitor, single point] |
| CCOC(=O)N1CCN(S(=O)(=O)c2ccc(C(=O)NNc3nc4c(C)cc(C)cc4s3)cc2)CC1 | inactive |
| CCCN(CCC)CCOc1cc(C)ccc1C(C)C | inconclusive: 89.1 µM [inhibitor, single point] |
| Cc1cccc2nc(-c3ccco3)c(Nc3ccc4c(c3)OCO4)n12 | active: 20 µM |
| CCc1cccc(NC(=O)C2CCCN(c3cnccn3)C2)c1 (configuration not stated) | inconclusive: 70.8 µM [inhibitor, single point] |

| SMILES | Potency |
| --- | --- |
| CSCC[C@H](NC(=O)[C@@H]1Cc2ccccc2CN1)C(=O)Nc1cccc(C)c1 | inconclusive: 79.4 µM [inhibitor, partial curve] |
| COc1ccc(OCCNC(=O)/C=C/c2ccc([N+](=O)[O-])cc2)cc1 | inconclusive: 50.1 µM [inhibitor, partial curve] |
| CCc1ccc(CN(C)CCc2ccccn2)cc1 | active: 44.7 µM |
| Cc1cc(N2CCN(c3ccccc3)CC2)n2cc(-c3ccccc3)nc2n1 | active: 44.7 µM |
| CC(=O)c1ccc(N2C(=NC(=O)C3CCCCC3)SC3CS(=O)(=O)CC32)cc1 (configuration not stated) | inactive |
| CCCC(=O)N1CCN(c2ccc(NC(=O)c3cccs3)cc2)CC1 | inconclusive: 79.4 µM [inhibitor, single point] |
| CS(=O)(=O)c1ccc(Sc2nc3ccccc3[nH]2)c([N+](=O)[O-])c1 | inconclusive: 50.1 µM [inhibitor, partial curve] |
| Cc1ccc(C)c(NC(=O)CN2C(=O)CCc3ccccc32)c1 | active: 79.4 µM |
| CCOc1cc(S(=O)(=O)n2cnc(C)c2)ccc1Cl | inconclusive: 89.1 µM [inhibitor, single point] |
| CSc1nsc(SC)c1C(=O)Nc1ccc(C)cc1 | inconclusive: 89.1 µM [inhibitor, single point] |
| O=c1[nH]c(S)nc2sc3c(c12)CCCC3 | inconclusive: 79.4 µM [inhibitor, single point] |
| O=[N+]([O-])c1ccc(Cl)c2c1C1C=CCC1C(c1ccccn1)N2 (configuration not stated) | active: 44.7 µM |
| CC(=O)c1cccc(N(C(=O)c2ccco2)C(C(=O)NC2CCCC2)c2ccccc2F)c1 (configuration not stated) | inactive |
| O=C(NNC(=O)C(c1ccccc1)c1ccccc1)c1ccccn1 | inconclusive: 89.1 µM [inhibitor, single point] |
| COc1ccc(N2C(=O)C(Cl)=C(Nc3c(C)n(C)n(-c4ccccc4)c3=O)C2=O)cc1 | inconclusive: 89.1 µM [inhibitor, single point] |
| CCOCc1nnc(NC(=O)COc2ccc3c(c2)OCO3)s1 | inactive |
| Cc1sc(Nc2ccc([N+](=O)[O-])cc2)nc1-c1c(C)n(C)n(-c2ccccc2)c1=O | inactive |
| COc1ccc(N(C)S(=O)(=O)c2cccc(C(=O)N(C)Cc3ccc(C)o3)c2)cc1 | inconclusive: 79.4 µM [inhibitor, partial curve] |
| O=C(COc1ncnc2ccccc12)N1CCN(S(=O)(=O)c2ccc(Cl)cc2)CC1 | inactive |
| CC(=O)c1cc2c(cc1N/C(=N/S(=O)(=O)c1ccc(C)cc1)c1ccccc1)OCO2 | inactive |
| CCOc1cccc2sc(N(CCN(C)C)C(=O)/C=C/c3cccs3)nc12 | inconclusive: 1.12 µM [inhibitor, full curve] |
| COc1cccc(-c2cc(C(=O)Nc3cc(Cl)ccc3O)on2)c1 | inconclusive: 17.8 µM [inhibitor, partial curve] |
| CCOC(=O)c1c(C)[nH]c(C)c1C(=O)CSc1nc2ccccc2c(=O)n1-c1ccc(F)cc1 | inconclusive: 50.1 µM [inhibitor, partial curve] |
| COc1ccc(CCNC(=O)C(=O)c2cn(CC(=O)N3CCOCC3)c3ccccc23)cc1OC | inconclusive: 50.1 µM [inhibitor, partial curve] |

| SMILES | Potency |
| --- | --- |
| COc1ccccc1C(=O)NNC(=O)c1sccc1-n1cccc1 | inconclusive: 79.4 µM [inhibitor, partial curve] |
| O=C1CSC(c2ccccc2[N+](=O)[O-])N1c1ccccc1 (configuration not stated) | inconclusive: 79.4 µM [inhibitor, single point] |
| Cc1cccc(C)c1NS(=O)(=O)c1ccc(NC(=O)c2ccc(Cl)c([N+](=O)[O-])c2)cc1 | inconclusive: 39.8 µM [inhibitor, single point] |
| CCN(CCNC(=O)C1CCN(S(=O)(=O)c2cccc3cccnc23)CC1)c1ccccc1 | inconclusive: 89.1 µM [inhibitor, single point] |
| Cc1cccc(NC(=S)NCCc2ccc(F)cc2)c1C | inconclusive: 70.8 µM [inhibitor, single point] |
| N#Cc1c(NC(=O)CCN2C(=O)c3ccccc3C2=O)oc(-c2ccccc2)c1-c1ccccc1 | inconclusive: 89.1 µM [inhibitor, single point] |
| COc1ccc(OCC(=O)OC2CCN(C)CC2)cc1 | inconclusive: 3.98 µM [inhibitor, full curve, poor fit] |
| COc1ccc(N2CCN(C(=O)c3cccc(F)c3)CC2)c([N+](=O)[O-])c1 | inconclusive: 50.1 µM [inhibitor, partial curve] |
| O=[N+]([O-])c1cc(/C=N/n2c(-c3cccnc3)n[nH]c2=S)ccc1Cl | inconclusive: 50.1 µM [inhibitor, partial curve] |
| Cc1cc2cc(CNC(=O)c3cccs3)ccc2n1C | active: 50.1 µM |
| CSc1ccc(C(=O)/C=C/c2ccc(N)cc2)cc1 | inconclusive: 39.8 µM [inhibitor, partial curve] |
| Cc1ccc(/C=N/n2c(-c3cccnc3)n[nH]c2=S)o1 | inconclusive: 10 µM [inhibitor, full curve, poor fit] |
| CCc1cccc(CC)c1NC(=O)CN1CCc2cc(OC)c(OC)cc2C1 | active: 50.1 µM |
| O=C(CN1CCCCC1)NC(=O)NC1CCCCC1 | inconclusive: 89.1 µM [inhibitor, single point] |
| COc1ccc(-c2csc(Nc3ccc(C)cn3)n2)cc1 | inconclusive: 89.1 µM [inhibitor, single point] |
| C=CCNCc1ccc(C(=O)NCCCCCCC)cc1[N+](=O)[O-] | inactive |
| O=C(NCCc1ccccc1)c1nnc(Cc2cccc(F)c2)o1 | inactive |
| COc1ccc(/C=C2\SC(=S)N(N3CCOCC3)C2=O)c(OC)c1 | inactive |
| O=C1C2(CCCC13COC(c1ccc(O)cc1)OC3)COC(c1ccc(O)cc1)OC2 (configuration not stated) | inactive |
| CCn1c(SCC(=O)C(C)(C)C)nnc1-c1ccccn1 | inconclusive: 79.4 µM [inhibitor, single point] |
| Cc1cccnc1NC(=O)c1cccc(NC(=O)CC2SC(N3CCCCC3)=NC2=O)c1 (configuration not stated) | inactive |
| Oc1ccc(N=Nc2ccccc2)cc1 | inconclusive: 44.7 µM [inhibitor, partial curve] |
| Cc1ccc(NC(=O)CSc2nnc(-c3ccco3)c(-c3ccco3)n2)cc1 | active: 31.6 µM |
| Cc1ccc(C)n1-c1c(C(=O)NN)cnn1-c1ccccc1 | inconclusive: 79.4 µM [inhibitor, single point] |
